Experimental data taken from the supplement of paper PMC12217912.
This is one part of the list. Sequences were assembled here from the parent chain. Inactive controls read about 0.05.

B1: TEV protease; numbered along this chain (parent)
chain: MGESLFKGPRDYNPISSSICHLTNESDGHTTSLYGIGFGPFIITNKHLFRRNNGTLVVQSLHGVFKVKDTTTLQQHLVDGRDMIIIRMPKDFPPFPQKLKFREPQREERICLVTTNFQTKSMSSMVSDTSCTFPSGDGIFWKHWIQTKDGQCGSPLVSTRDGFIVGIHSASNFTNTNNYFTSVPKNFMELLTNQEAQQWVSGWRLNADSVLWGGHKVFMVKPEEPFQPVKEATQL

Variants of: B1
Assay: raw area under fraction-flipped curve 0-4 h after induction (AUC4h, not background-subtracted), DNA-recorder readout of cleavage of the substrate (dimensionless); higher = more cleavage of the substrate by the protease variant
Details: temperature: 34 °C; time window: 0-4 h after rhamnose induction
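Also: Bxb1 expression induced with 0.2% (w/v) L-rhamnose at OD600 near 0.5, cultures sampled hourly, flipped fraction per protease–substrate barcode pair counted by paired-end Illumina sequencing.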

Variant	area with substrate ENLYFQF	area with substrate ENLYFQG	area with substrate ENLYFQH	area with substrate ENLYFQI	area with substrate ENLYFQL	area with substrate ENLYFQM	area with substrate ENLYFQN	area with substrate ENLYFQP	area with substrate ENLYFQR	area with substrate ENLYFQS	area with substrate ENLYFQV	area with substrate ENLYFQW	area with substrate ENLYFQK	area with substrate ENLYFQQ	area with substrate ENLYFQT	area with substrate ENLYFQY	area with substrate ENLYFQD	area with substrate ENLYFQE
MGESLFKGPRDYNPISSSICHLTNESDGHTTSLYGIGFGPFIITNKHLFRRNNGTLVVQSLHGVFKVKDTTTLQQHLVDGRDMIIIRMPKDFPPFPQKLKFREPQREERICLVTTNFQTKSMSSMVSDTSCTFPSGDGIFWKHWIQTKDGQCGSPLVGTRDGFIVGIHSASNFTNTNNYFTSVPKNFMELLTNQEAQQWVSGWRLNADSVLWGGHKVFMVKPEEPFQPVKEATQL [S158G]	0.0761	0.096	0.071	0.133	0.0688	0.11	0.0716	0.0579	0.0456	0.109	0.0618	0.0598						
MGESLFKGPRDYNPISSSICHLTNESDGHTTSLYGIGFGPFIITNKHLFRRNNGTLVVQSLHGVFKVKDTTTIQQHLVDGRDMIIIRMPKDFPPFPQKLKFREPQREERICLVTTNFQTKSMSSMVSDTSCTFPSGDGIFWKHWIQTKDGQCGSPLVSTRDGFIVGIHSASNFTNTNNYFTSVPKNFMELLTNQEAQQWVSGWRLNADSVLWGGHKVFMVKPEEPFQPVKEATQL [L73I]	0.0674	0.13	0.1	0.0636	0.0679	0.0963	0.139	0.0483	0.0573	0.102	0.0621	0.0644	0.0529	0.0849	0.0577	0.0869		
MGESLFKGPRDYNPISSSICHLTNESDGHTTSLYGIGFGPFIITNKHLFRRNNGTLVVQSLHGVFKVKDTTTLQQHLVDGRDMIIIRMPKDFPPFPQKLKFREPQREERICLVTTNFQTKSMSSMVSDTSCTFPSGDGIFWKHWIQTKDGQCGSPLVSTRDGFIVGIHSASNFTNTNNYFTSVPKNFMELYTNQEAQQWVSGWRLNADSVLWGGHKVFMVKPEEPFQPVKEATQL [L191Y]				0.0529	0.0622		0.0523		0.0579	0.0651		0.0598	0.0661			0.0408	0.0493	0.0541
MGESLFKGPRDYNPISSSICHLTNESDGHTTSLYGIGFGPFIITNKHLFRRNNGTLVVQSLHGVFKVKDTTTLQQHLVDGRDMIIIRMPKDFPPFPQKLKFREPQREERICLVTTNFQTKSMSSMVSDTSCTFPSGDGIFWKHWIQTKDGQCGSPLVSTRDGFIVGIHSASNFTNTNNYFTSVPKNFMELLTNQEAQQWVSGWRLNADSVLWGGHKVFMMKPEEPFQPVKEATQL [V220M]	0.0831			0.0527	0.0532		0.0826	0.0586	0.0478	0.111	0.0573	0.0557	0.0648		0.0671		0.0643	
MGESLFKGPRDYNPISSSICHLTNESDGHTTSLYGIGFGPFIITNKHLFRRNNGTLVVQSLHGVFKVKDTTTLQQHLVDGRDMIIIRMNKDFPPFPQKLKFREPQREERICLVTTNFQTKSMSSMVSDTSCTFPSGDGIFWKHWIQTKDGQCGSPLVSTRDGFIVGIHSASNFTNTNNYFTSVPKNFMELLTNQEAQQWVSGWRLNADSVLWGGHKVFMVKPEEPFQPVKEATQL [P89N]		0.0939		0.0428	0.0462	0.0713			0.0581	0.0847			0.0576	0.067	0.0582	0.0686	0.0628	
MGESLFKGPRDYNPISSSICHLTNESDGHTTSLYGIGFGPFIITNKHLFRRNNGTLVVQSLHGVFKVKDTTTLQQHLVDGRDMIRIRMPKDFPPFPQKLKFREPQREERICLVTTNFQTKSMSSMVSDTSCTFPSGDGIFWKHWIQTKDGQCGSPLVSTRDGFIVGIHSASNFTNTNNYFTSVPKNFMELLTNQEAQQWVSGWRLNADSVLWGGHKVFMVKPEEPFQPVKEATQL [I85R]			0.0634	0.0584	0.0592	0.0573	0.077			0.0578	0.0581		0.0752			0.0487		
